Laboratory results from PMC10965993.
Residue numbers refer to the chain shown, from its start. Numbers in names are those of the source. These are yes or no findings as the source states them, for the method shown. In cells and extracts the contact can be indirect. Some binding calls cover weakened binding; strength is not graded here. For part of these data: Tags and fused reporters may be left off the sequences shown.

Chains of the proteins cited; added tags and fusions are not shown. Lines headed by an entry give the natural chain unless they say otherwise; changes in a name come on top. A line that says so, or that is headed by a name, gives the form on record, which may keep a tag or linker. Residues count along the entry.
UniProt P29317: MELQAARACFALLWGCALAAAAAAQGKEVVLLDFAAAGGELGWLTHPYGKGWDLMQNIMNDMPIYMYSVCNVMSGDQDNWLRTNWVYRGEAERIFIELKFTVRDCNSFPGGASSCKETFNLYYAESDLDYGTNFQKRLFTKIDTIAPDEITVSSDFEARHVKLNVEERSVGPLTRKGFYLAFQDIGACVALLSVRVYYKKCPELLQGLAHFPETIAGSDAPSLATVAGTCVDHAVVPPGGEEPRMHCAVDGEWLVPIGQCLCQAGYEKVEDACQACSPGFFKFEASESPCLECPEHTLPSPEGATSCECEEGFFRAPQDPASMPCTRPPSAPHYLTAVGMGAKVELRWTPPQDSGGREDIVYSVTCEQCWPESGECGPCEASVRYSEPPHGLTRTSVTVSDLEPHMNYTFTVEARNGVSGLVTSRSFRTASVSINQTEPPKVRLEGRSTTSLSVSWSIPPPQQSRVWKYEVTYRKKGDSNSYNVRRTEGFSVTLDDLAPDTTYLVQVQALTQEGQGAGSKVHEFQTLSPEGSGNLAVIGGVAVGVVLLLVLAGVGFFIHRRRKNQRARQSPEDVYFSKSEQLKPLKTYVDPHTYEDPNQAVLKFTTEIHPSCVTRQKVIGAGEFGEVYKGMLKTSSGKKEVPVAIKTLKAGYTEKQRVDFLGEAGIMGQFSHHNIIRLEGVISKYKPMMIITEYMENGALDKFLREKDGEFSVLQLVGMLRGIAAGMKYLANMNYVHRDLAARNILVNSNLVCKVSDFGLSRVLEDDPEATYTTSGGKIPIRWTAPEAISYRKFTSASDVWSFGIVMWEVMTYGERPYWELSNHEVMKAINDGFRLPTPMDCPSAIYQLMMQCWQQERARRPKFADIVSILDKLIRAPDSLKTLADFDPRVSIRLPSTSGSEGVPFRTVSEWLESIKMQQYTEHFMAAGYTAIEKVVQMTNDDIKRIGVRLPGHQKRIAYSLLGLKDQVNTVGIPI
Flag-tagged EPHA2 (Flag-EPHA2): residues 24-976 of P29317
EPHA2-F2 (559-976): residues 559-976 of P29317

B1: Ubiquitin-specific protease 3 (USP3), endogenous (enzyme, UniProt Q9Y6I4 1-520)
chain: MECPHLSSSVCIAPDSAKFPNGSPSSWCCSVCRSNKSPWVCLTCSSVHCGRYVNGHAKKHYEDAQVPLTNHKKSEKQDKVQHTVCMDCSSYSTYCYRCDDFVVNDTKLGLVQKVREHLQNLENSAFTADRHKKRKLLENSTLNSKLLKVNGSTTAICATGLRNLGNTCFMNAILQSLSNIEQFCCYFKELPAVELRNGKTAGRRTYHTRSQGDNNVSLVEEFRKTLCALWQGSQTAFSPESLFYVVWKIMPNFRGYQQQDAHEFMRYLLDHLHLELQGGFNGVSRSAILQENSTLSASNKCCINGASTVVTAIFGGILQNEVNCLICGTESRKFDPFLDLSLDIPSQFRSKRSKNQENGPVCSLRDCLRSFTDLEELDETELYMCHKCKKKQKSTKKFWIQKLPKVLCLHLKRFHWTAYLRNKVDTYVEFPLRGLDMKCYLLEPENSGPESCLYDLAAVVVHHGSGVGSGHYTAYATHEGRWFHFNDSTVTLTDEETVVKAKAYILFYVEHQAKAGSDKL
B2: Myc-tagged human USP3 (Myc-USP3) (enzyme, UniProt Q9Y6I4 1-520)
chain: B1 chain
B3: USP3-F2 (159-520) (domain or fragment, UniProt Q9Y6I4 159-520)
chain: TGLRNLGNTCFMNAILQSLSNIEQFCCYFKELPAVELRNGKTAGRRTYHTRSQGDNNVSLVEEFRKTLCALWQGSQTAFSPESLFYVVWKIMPNFRGYQQQDAHEFMRYLLDHLHLELQGGFNGVSRSAILQENSTLSASNKCCINGASTVVTAIFGGILQNEVNCLICGTESRKFDPFLDLSLDIPSQFRSKRSKNQENGPVCSLRDCLRSFTDLEELDETELYMCHKCKKKQKSTKKFWIQKLPKVLCLHLKRFHWTAYLRNKVDTYVEFPLRGLDMKCYLLEPENSGPESCLYDLAAVVVHHGSGVGSGHYTAYATHEGRWFHFNDSTVTLTDEETVVKAKAYILFYVEHQAKAGSDKL
B4: USP3-F1 (1-158) (domain or fragment, UniProt Q9Y6I4 1-158)
chain: MECPHLSSSVCIAPDSAKFPNGSPSSWCCSVCRSNKSPWVCLTCSSVHCGRYVNGHAKKHYEDAQVPLTNHKKSEKQDKVQHTVCMDCSSYSTYCYRCDDFVVNDTKLGLVQKVREHLQNLENSAFTADRHKKRKLLENSTLNSKLLKVNGSTTAICA
B5: Myc-USP3 R203A (enzyme, UniProt Q9Y6I4 1-520)
chain: B1 chain with R203A

Assays:
[1] = target: EPHA2, endogenous (human (endogenous in cell lysates, cell line not named)) (UniProt P29317); test: co-IP; endogenous proteins; cell lysates immunoprecipitated with control IgG, anti-USP3 or anti-EPHA2 antibodies, protein A/G-Sepharose beads, washed 3 times with cold PBS, Western blot
[2] = target: Flag-tagged EPHA2 (Flag-EPHA2) (UniProt P29317); test: co-IP; HEK293T cells transfected with the indicated Myc- and Flag-tagged constructs; immunoprecipitated with anti-Flag or anti-Myc antibodies, Western blot of lysates and precipitates
[3] = target: EPHA2-F2 (559-976) (UniProt P29317); test: as above

Row | Binder | binding [1] | binding [2] | binding [3]
1 | B1 | binds | – | –
2 | B2 | – | binds | binds
3 | B3 | – | binds | –
4 | B4 | – | no binding | –
5 | B5 | – | no binding | –
